Results: a collection of fitness landscapes (doi:10.1126/science.1257360)
The list shows a part of the results.

B1: PhoQ; a variant is named by its letters at X, in order, P23837 (parent)
chain: MKKLLRLFFPLSLRVRFLLATAAVVLVLSLAYGMVALIGYSVSFDKTTFRLLRGESNLFYTLAKWENNKLHVELPENIDKQSPTMTLIYDENGQLLWAQRDVPWLMKMIQPDWLKSNGFHEIEADVNDTSLLLSGDHSIQQQLQEVREDDDDAEMTHSVAVNVYPATSRMPKLTIVVVDTIPVELKSSYMVWSWFIYVLSANLLLVIPLLWVAAWWSLRPIEALAKEVRELEEHNRELLNPATTRELTSLVRNLNRLLKSERERYDKYRTTLTDLTHSLKTPLXXLQXXLRSLRSEKMSVSDAEPVMLEQISRISQQIGYYLHRASMRGGTLLSRELHPVAPLLDNLTSALNKVYQRKGVNISLDISPEISFVGEQNDFVEVMGNVLDNACKYCLEFVEISARQTDEHLYIVVEDDGPGIPLSKREVIFDRGQRVDTLRPGQGVGLAVAREITEQYEGKIVAGESMLGGARMEVIFGRQHSAPKDE

Variants of: B1
Test: enrichment ratio after two sorts for PhoP signalling (ratio (wild type AVST 3.29)); higher = more functional
Conditions: with PhoP (E. coli)

| Variant | enrichment ratio |
| --- | --- |
| WRCP | ≤ 0.25 |
| MNEC | ≤ 0.25 |
| GNKS | ≤ 0.25 |
| CSAV | ≤ 0.25 |
| RCMN | ≤ 0.25 |
| PADN | ≤ 0.25 |
| QKPL | ≤ 0.25 |
| KWAT | ≤ 0.25 |
| QFVK | ≤ 0.25 |
| QICQ | ≤ 0.25 |
| IDET | ≤ 0.25 |
| KNAT | ≤ 0.25 |
| RAHQ | ≤ 0.25 |
| WGRA | ≤ 0.25 |
| DVQF | ≤ 0.25 |
| DAYK | ≤ 0.25 |
| PDTT | ≤ 0.25 |
| SFCS | ≤ 0.25 |
| HTKY | ≤ 0.25 |
| TAPM | ≤ 0.25 |
| PKIF | ≤ 0.25 |
| QIMM | ≤ 0.25 |
| DEDQ | ≤ 0.25 |
| IEHG | ≤ 0.25 |
| FWWR | ≤ 0.25 |

| Variant | enrichment ratio |
| --- | --- |
| LPKH | ≤ 0.25 |
| LAMF | ≤ 0.25 |
| QPIE | ≤ 0.25 |
| KKHR | ≤ 0.25 |
| MPTQ | ≤ 0.25 |
| FCMK | ≤ 0.25 |
| RPAV | ≤ 0.25 |
| MVCA | ≤ 0.25 |
| VMKW | ≤ 0.25 |
| FVAI | ≤ 0.25 |
| QGAS | 0.936 |
| FIPK | 0.294 |
| NATF | ≤ 0.25 |
| PLCM | ≤ 0.25 |
| NIMI | ≤ 0.25 |
| SHNH | 1.34 |
| AVCS | 8.99 |
| PRPA | ≤ 0.25 |
| QQYR | ≤ 0.25 |
| DCQR | ≤ 0.25 |
| FCAN | ≤ 0.25 |
| ECVY | ≤ 0.25 |
| EVAP | ≤ 0.25 |
| MNGW | ≤ 0.25 |
| DQCE | ≤ 0.25 |

| Variant | enrichment ratio |
| --- | --- |
| RYHI | ≤ 0.25 |
| VAFI | 0.629 |
| NIIC | ≤ 0.25 |
| SIYV | ≤ 0.25 |
| DNAW | ≤ 0.25 |
| GSPK | ≤ 0.25 |
| IEEW | ≤ 0.25 |
| LNLR | ≤ 0.25 |
| YGQD | ≤ 0.25 |
| RSNF | ≤ 0.25 |
| YNYD | ≤ 0.25 |
| SLKS | ≤ 0.25 |
| SHWR | ≤ 0.25 |
| FENG | ≤ 0.25 |
| VCHF | ≤ 0.25 |
| VWMT | ≤ 0.25 |
| RYVY | ≤ 0.25 |
| DVPA | ≤ 0.25 |
| HGND | ≤ 0.25 |
| MIND | ≤ 0.25 |
| NCTH | ≤ 0.25 |
| ALVS | ≤ 0.25 |
| IEPY | ≤ 0.25 |
| MKPM | ≤ 0.25 |
| AIHR | ≤ 0.25 |

| Variant | enrichment ratio |
| --- | --- |
| LHGW | ≤ 0.25 |
| YKYS | ≤ 0.25 |
| PRKD | ≤ 0.25 |
| LKKN | ≤ 0.25 |
| FMTD | ≤ 0.25 |
| YIHS | ≤ 0.25 |
| ISEY | ≤ 0.25 |
| YAKS | ≤ 0.25 |
| HHED | ≤ 0.25 |
| ITYD | ≤ 0.25 |
| TTII | ≤ 0.25 |
| RWFR | ≤ 0.25 |
| PLWW | ≤ 0.25 |
| WVRQ | ≤ 0.25 |
| LIKK | ≤ 0.25 |
| FGSS | ≤ 0.25 |
| SSVP | ≤ 0.25 |
| FYKQ | ≤ 0.25 |
| DYSK | ≤ 0.25 |
| VGVQ | ≤ 0.25 |
| ENSS | ≤ 0.25 |
| WHYL | ≤ 0.25 |
